± gives the standard deviation. This is a selection; strong and weak results do not stand in their true shares.
Tested on: MIWI (PIWIL1) piRISC loaded with L1MC piRNA (30 nt)
Assay: pre-steady-state target cleavage rate (min^-1); MIWI and MILI are mouse PIWI proteins and EfPiwi is from a freshwater sponge; tags in brackets are library labels; higher = faster piRNA-guided slicing of the target
Conditions: guide: L1MC piRNA 5'p-UAACUAAAUACUAUGCAAGCUGUAGGUCCU
How it was run: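 A transcribed, DNA-blocked target RNA library […] was incubated at 33 °C for 0–8 or 0–960 min with 1 nM active affinity-purified piRISC carrying one synthetic guide, in HEPES–potassium acetate buffer with or without 500 nM GTSF1 partner protein. Uncleaved targets were then sequenced and normalised to depth and to weakly complementary targets. Data from three trials were pooled, with k3 capped at 0.0001 min^-1, and a burst-and-steady-state fit yielded the pre-steady-state cleavage rate.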

[1] = auxiliary factor: 500 nM mouse GTSF1
[2] = auxiliary factor: none (no GTSF1)
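Also: 1 nM active piRISC with 0.1 nM target library at 33 °C single turnover.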

Row | Sequence | pre-steady-state target cleavage rate [1] | pre-steady-state target cleavage rate [2]
1 | UCCACCUAGAGCUUGCUUAGUAUUUAGUUA | 0.549 ± 0.044 | 0.0205 ± 0.0044
2 | UGGACCUACUGCUUGCAUAGUAUUUAGUUA | 1.46 ± 0.073 | 0.0611 ± 0.0097
3 | UCCUGGUACAGCUUGCAUAUUAUUUAGUUA | 0.587 ± 0.08 | 0.0572 ± 0.013
4 | UCCUGGAUGCGCUUGCAUAGUAUUUAGUUA | 0.98 ± 0.053 | 0.0486 ± 0.01
5 | UCCUGCUACAGCUUGCACAGUAUUUAGUUA | 0.627 ± 0.029 | 0.0506 ± 0.0074
6 | UCCUGGAACAGCUUGCAUAGUUAUUAGUUA | 0.113 ± 0.015 | 0.015 ± 0.0044
7 | UGGACGUACAGCAUGCAUAGUAUUUAGUUA | 1.11 ± 0.064 | 0.0375 ± 0.006
8 | AGGACCUACAGCUUGCAUAGUUAUUUAGUUA | 0.0867 ± 0.014 | 0.00831 ± 0.0033
9 | UCCUGGAACAGCUUGCAUAGUAUUUAGUGA | 0.632 ± 0.043 | 0.0403 ± 0.0086
10 | UGGACCUACAGCAUUGCAUAGUAUUUAGUUA | 1.27 ± 0.11 | 0.0665 ± 0.014
11 | UCCAGCUACAGCUUGCAUAGUAUAUAGUUA | 0.319 ± 0.039 | 0.0155 ± 0.0019
12 | UCCUGCUACACCUUGCAAAGUAUUUAGUUA | 0.692 ± 0.041 | 0.0318 ± 0.006
13 | UCCUCCUACAGCUUGCAUAGGAUUUAGUUA | 0.0453 ± 0.0078 | 0.00636 ± 0.0018
14 | UCCUGGAUGAGCUUGCAUACUUUUUAGUUA | 0.00558 ± 0.0034 | 0.00376 ± 0.0015
15 | UCCUGGAACAGCUUGCAAAGUAUUUUGUUA | 0.471 ± 0.05 | 0.0188 ± 0.0066
16 | UCGACCUACAGCUAGCAUAGUAUAUAGUUA | 0.804 ± 0.055 | 0.00897 ± 0.002
17 | UGGAGCUACAGCUUGCAUAGUAUUUAGUAA | 0.953 ± 0.06 | 0.0465 ± 0.0085
18 | UCCUCCUACAGCAUUGCAUAGUAUUUAGUUA | 0.796 ± 0.051 | 0.0258 ± 0.0037
19 | UCCUGGUUGAGCUUGCAUAGUAUUUAGUUA | 0.59 ± 0.035 | 0.0369 ± 0.0084
20 | UCCUGGUACACCUUGCAUUGUAUUUAGUUA | 0.207 ± 0.052 | 0.00808 ± 0.0025
